Hit rate of the full screen: of about 310,000 compounds, about 2,200 (0.71%) showed an effect of 50% or more. Effects have a minus sign here. This is one part of the list.
Each compound was assayed against human ether-à-go-go-related gene (hERG) potassium channel (human, UniProt Q12809) (assay: primary screen, population patch clamp on CHO cells stably expressing hERG).
Chain of human ether-à-go-go-related gene (hERG) potassium channel (Q12809 whole entry, looked up): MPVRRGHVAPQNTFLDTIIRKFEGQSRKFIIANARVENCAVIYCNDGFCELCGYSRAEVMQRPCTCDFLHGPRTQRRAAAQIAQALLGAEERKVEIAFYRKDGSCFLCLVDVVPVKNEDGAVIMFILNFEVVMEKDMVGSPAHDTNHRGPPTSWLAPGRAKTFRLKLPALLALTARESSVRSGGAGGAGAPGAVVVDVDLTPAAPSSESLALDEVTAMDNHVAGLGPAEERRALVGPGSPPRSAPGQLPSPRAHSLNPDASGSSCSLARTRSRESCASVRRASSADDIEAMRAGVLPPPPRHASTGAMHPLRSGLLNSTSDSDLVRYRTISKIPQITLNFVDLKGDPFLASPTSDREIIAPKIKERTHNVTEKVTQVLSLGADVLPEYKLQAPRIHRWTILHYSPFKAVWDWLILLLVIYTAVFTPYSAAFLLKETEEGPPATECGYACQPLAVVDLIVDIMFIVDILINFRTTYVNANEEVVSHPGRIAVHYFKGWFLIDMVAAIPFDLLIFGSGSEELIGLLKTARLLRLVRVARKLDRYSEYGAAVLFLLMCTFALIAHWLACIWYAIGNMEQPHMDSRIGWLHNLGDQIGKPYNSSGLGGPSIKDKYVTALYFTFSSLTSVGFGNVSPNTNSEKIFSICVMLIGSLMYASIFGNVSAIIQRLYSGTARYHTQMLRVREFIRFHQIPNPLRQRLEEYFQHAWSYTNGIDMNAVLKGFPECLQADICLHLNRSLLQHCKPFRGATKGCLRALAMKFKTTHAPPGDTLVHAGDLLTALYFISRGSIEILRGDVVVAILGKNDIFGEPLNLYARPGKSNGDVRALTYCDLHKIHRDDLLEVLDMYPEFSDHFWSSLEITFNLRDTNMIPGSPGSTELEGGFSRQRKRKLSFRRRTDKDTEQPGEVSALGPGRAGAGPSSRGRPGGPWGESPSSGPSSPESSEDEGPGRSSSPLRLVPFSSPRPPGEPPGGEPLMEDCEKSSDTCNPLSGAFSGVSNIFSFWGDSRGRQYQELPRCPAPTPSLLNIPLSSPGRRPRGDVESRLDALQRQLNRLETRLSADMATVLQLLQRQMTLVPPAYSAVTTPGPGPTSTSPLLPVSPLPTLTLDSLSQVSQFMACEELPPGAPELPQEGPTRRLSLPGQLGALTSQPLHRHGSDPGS

Question: `O=C(CSc1nc(-c2ccccc2)cc(=O)[nH]1)NCc1ccc2c(c1)OCO2` was tested. Which “hERG current change (%, negative = inhibition) at 1uM” value did it give?
Answer: 6.45%

Question: Which “hERG current change (%, negative = inhibition) at 1uM” value does the source give for `O=C(Nc1ccc2c(c1)OCCO2)c1ccc(Cl)cc1` here?
Answer: 12.3%

Question: For `CNC(=S)N(Cc1ccco1)Cc1cc2cc(OC)ccc2[nH]c1=O`, which “hERG current change (%, negative = inhibition) at 1uM” value is on record?
Answer: 18.8%

Question: Which “hERG current change (%, negative = inhibition) at 1uM” value does the source give for `COc1ccc(NC(=O)CSc2nnc(CNc3ccc(C)cc3)n2C)cc1` here?
Answer: 12%

Question: With `COc1ccc(Cl)cc1NC(=S)NCCCN1CCCC1=O` as the compound, how does the “hERG current change (%, negative = inhibition) at 1uM” value read?
Answer: 10.7%

Question: `COc1cc2c(cc1OC)C(NC(=O)c1ccc(C)cc1)CC2=O` (stereo not shown) was tested. Which “hERG current change (%, negative = inhibition) at 1uM” value did it give?
Answer: 7.58%

Question: For `COc1ccc(S(=O)(=O)N2CCN(C(=O)NC3CCCCC3)CC2)cc1OC`, which “hERG current change (%, negative = inhibition) at 1uM” value is on record?
Answer: -3.33%

Question: Which “hERG current change (%, negative = inhibition) at 1uM” value does the source give for `O=C(CCCc1ccccc1)Nc1ccccn1` here?
Answer: 7.28%

Question: For `CCCn1c2ccccc2c2nnc(SCCN3CCOCC3)nc21`, which “hERG current change (%, negative = inhibition) at 1uM” value is on record?
Answer: 3.75%

Question: With `COc1cccc2cc(C(=O)CS(=O)(=O)c3ccc(C(C)(C)C)cc3)c(=O)oc12` as the compound, how does the “hERG current change (%, negative = inhibition) at 1uM” value read?
Answer: 12.3%

Question: `CN(CC(=O)O/N=C(\N)c1ccccn1)S(=O)(=O)c1ccccc1` was tested. Which “hERG current change (%, negative = inhibition) at 1uM” value did it give?
Answer: 10.9%

Question: `Cc1ccc(C)c(OCc2ccc(C(=O)N3N=C(C(F)F)CC3(O)C(F)F)o2)c1` (stereo not shown) was tested. Which “hERG current change (%, negative = inhibition) at 1uM” value did it give?
Answer: 19.8%

Question: Which “hERG current change (%, negative = inhibition) at 1uM” value does the source give for `O=C1C2C3C=CC(C3)C2C(=O)N1CCCCN1C(=O)C2C3C=CC(C3)C2C1=O` (stereo not shown) here?
Answer: 3.61%

Question: How did the “hERG current change (%, negative = inhibition) at 1uM” value turn out when `COc1ccc(C(C(=O)Nc2ccc(C(C)C)cc2)N(C)C(=O)CNC(C)=O)cc1` (stereo not shown) was run?
Answer: -1.97%

Question: `Fc1ccc(C(CNC(=S)NC2CCCCC2)N2CCOCC2)cc1` (stereo not shown) was tested. Which “hERG current change (%, negative = inhibition) at 1uM” value did it give?
Answer: 9.37%

Question: For `CCc1cccc(C)c1NC(=O)COC(=O)Cc1ccsc1`, which “hERG current change (%, negative = inhibition) at 1uM” value is on record?
Answer: 12.3%

Question: `Cc1c(C(=O)NCC2CCCO2)oc2ccccc12` (stereo not shown) was tested. Which “hERG current change (%, negative = inhibition) at 1uM” value did it give?
Answer: 6.19%

Question: How did the “hERG current change (%, negative = inhibition) at 1uM” value turn out when `O=C(Nc1ccccc1F)C1CCN(C(=O)NCc2ccccc2)CC1` was run?
Answer: 16.3%

Question: `O=C(CSc1ncn[nH]1)Nc1ccc(Cl)c(S(=O)(=O)N2CCOCC2)c1` was tested. Which “hERG current change (%, negative = inhibition) at 1uM” value did it give?
Answer: 12.5%

Question: `CCOc1ccc2ccccc2c1C(=O)Nc1cc(=O)n(C)c(=O)n1C` was tested. Which “hERG current change (%, negative = inhibition) at 1uM” value did it give?
Answer: 5.6%

Question: How did the “hERG current change (%, negative = inhibition) at 1uM” value turn out when `CN(C(=O)Cn1nc(C(=O)O)c2ccccc2c1=O)c1ccccc1` was run?
Answer: 5.29%

Question: Which “hERG current change (%, negative = inhibition) at 1uM” value does the source give for `COc1cccc(/C=N/NC(=O)c2nc(-c3ccccc3)cc(-c3ccccc3)n2)c1O` here?
Answer: 5.88%

Question: For `CCCC(=O)N=C1SC2CS(=O)(=O)CC2N1c1ccc(-c2nc3ccc(C)cc3s2)cc1` (stereo not shown), which “hERG current change (%, negative = inhibition) at 1uM” value is on record?
Answer: 10.9%

Question: `CCCC(=O)Nc1sc2c(c1C(=O)OC)C(C(=O)OC)CC2` (stereo not shown) was tested. Which “hERG current change (%, negative = inhibition) at 1uM” value did it give?
Answer: 6.32%

Question: For `Clc1cccc(-c2ccnc3nc(-n4cccc4)nn23)c1`, which “hERG current change (%, negative = inhibition) at 1uM” value is on record?
Answer: 21.8%
